The source of these data is the antibiotic and cytotoxicity screens of Wong et al. (2023).

One experiment has as its system HSkMC. The experiment can be described thus: cytotoxicity call (relative viability < 0.9). Particulars: 10 µM.
A further experiment deals with HepG2. The experiment in a line: cytotoxicity call (relative viability < 0.9). Particulars: 10 µM.
A further experiment concerns S. aureus RN4220. The experiment in a line: growth inhibition call (relative growth <= 0.2). Conditions: 50 µM.

SMILES strings stand for the structures. The list shows a part of the results.

For `C[C@H]1CN([C@@H](C)CO)S(=O)(=O)c2ccc(Br)cc2O[C@H]1CN(C)S(=O)(=O)c1ccc(F)cc1`, the cytotoxicity call with HSkMC and with HepG2 was “inactive” each time. In addition, in the experiment on S. aureus RN4220, the growth inhibition call is “inactive”.
In the case of `Cc1noc(C)c1NC(=O)N(C)C[C@@H]1OCCCC[C@H](C)Oc2ccc(NC(=O)Nc3ccccc3)cc2C(=O)N([C@@H](C)CO)C[C@@H]1C`, the cytotoxicity call in the experiment on HSkMC and with HepG2 was “inactive” in each case. Moreover, the growth inhibition call in the experiment with S. aureus RN4220 is “inactive”.
As to `Cc1noc(C)c1NC(=O)Nc1ccc2c(c1)C(=O)N([C@@H](C)CO)C[C@H](C)[C@@H](CN(C)C(=O)NC1CCCCC1)OCCCC[C@H](C)O2`, the cytotoxicity call in the experiment on HSkMC and with HepG2 was “inactive” throughout. Moreover, the growth inhibition call with S. aureus RN4220 was “inactive”.
For the compound `Cc1noc(C)c1NC(=O)N(C)C[C@H]1Oc2ccc(NC(=O)C3CC3)cc2CC(=O)N([C@H](C)CO)C[C@H]1C`, the cytotoxicity call in the experiment with HSkMC and with HepG2 was “inactive” throughout. The growth inhibition call in the experiment with S. aureus RN4220 is “inactive”.
As to `C[C@H](CO)N1C[C@H](C)[C@H](CN(C)C(=O)Nc2ccc3c(c2)OCO3)Oc2ccc(NC(=O)C3CC3)cc2CC1=O`, the cytotoxicity call in the experiment on HSkMC and in the experiment with HepG2 was “inactive” each time. For the same compound, the growth inhibition call with S. aureus RN4220 is “inactive”.
`CN(C)Cc1nc(=O)c2ccccc2[nH]1`: the cytotoxicity call in the experiment on HSkMC and with HepG2 was “inactive” throughout. Besides, the growth inhibition call with S. aureus RN4220 was “inactive”.
Regarding `CCS(=O)(=O)N1CC[C@]2(CC1)CN(Cc1ccc3c(c1)OCO3)[C@@H](CO)c1c2c2ccc(cc2n1C)OC`, the cytotoxicity call in the experiment with HSkMC and in the experiment on HepG2 was “inactive” in each case. Besides, the growth inhibition call with S. aureus RN4220 is “inactive”.
For `COc1ccc(S(=O)(=O)N(C)C[C@H]2Oc3ccc(NC(=O)Nc4c(C)noc4C)cc3C(=O)N([C@@H](C)CO)C[C@H]2C)cc1`, the cytotoxicity call with HSkMC and in the experiment on HepG2 was “inactive” in each case. Besides, the growth inhibition call in the experiment with S. aureus RN4220 was “inactive”.
For `C[C@@H]1CN([C@@H](C)CO)S(=O)(=O)c2ccc(C#CC3CC3)cc2O[C@@H]1CN(C)Cc1ccc(F)cc1`, the cytotoxicity call with HSkMC and in the experiment with HepG2 was “inactive” each time. In addition, in the experiment on S. aureus RN4220, the growth inhibition call was “inactive”.
For the compound `C=CC[C@@H](CC(=O)N[C@H](CO)Cc1ccccc1)C(=O)NC[C@@H](OC(=O)[C@@H](CC=C)Cc1ccc(F)cc1)c1ccccc1`, the cytotoxicity call in the experiment on HSkMC and with HepG2 was “inactive” throughout. For the same compound, the growth inhibition call in the experiment on S. aureus RN4220 is “inactive”.
With `C[C@@H]1C[C@H]1C(=O)O`, the cytotoxicity call with HSkMC and with HepG2 was “inactive” throughout. Moreover, in the experiment on S. aureus RN4220, the growth inhibition call is “inactive”.
On to `C[C@H](CO)N1C[C@H](C)[C@@H](CN(C)C(=O)C2CCCCC2)OCCCC[C@H](C)Oc2ccc(NC(=O)Nc3ccc4c(c3)OCO4)cc2C1=O`, for which the cytotoxicity call in the experiment with HSkMC and in the experiment on HepG2 was “inactive” each time. Moreover, the growth inhibition call in the experiment with S. aureus RN4220 was “inactive”.
In the case of `C[C@H]1CCCCO[C@@H](CN(C)C(=O)Nc2ccc(F)cc2)[C@@H](C)CN([C@@H](C)CO)C(=O)c2cc(NC(=O)c3ccncc3)ccc2O1`, the cytotoxicity call in the experiment with HSkMC and in the experiment on HepG2 was “inactive” throughout. Moreover, the growth inhibition call with S. aureus RN4220 was “inactive”.
As to `CN1CCN(C(=O)C[C@H]2CC[C@@H]3[C@H](COC[C@@H](O)CN3C(=O)C3CCCC3)O2)CC1`, the cytotoxicity call in the experiment with HSkMC and in the experiment with HepG2 was “inactive” throughout. The growth inhibition call in the experiment on S. aureus RN4220 was “inactive”.
For the compound `C[C@H](CO)N1C[C@H](C)[C@H](CN(C)S(C)(=O)=O)Oc2ccc(NC(=O)Nc3ccc4c(c3)OCO4)cc2C1=O`, the cytotoxicity call with HSkMC and with HepG2 was “inactive” each time. Besides, the growth inhibition call in the experiment with S. aureus RN4220 was “inactive”.
Consider `CO[C@@H]1CN(C)C(=O)c2ccc(NC(=O)C3CCOCC3)cc2OC[C@@H](C)N(Cc2cccnc2)C[C@H]1C`, for which the cytotoxicity call with HSkMC and in the experiment with HepG2 was “inactive” in each case. Besides, the growth inhibition call in the experiment on S. aureus RN4220 was “inactive”.
Take `C[C@@H]1CN(C)C(=O)c2cccc(NC(=O)c3ccncc3)c2O[C@H]1CN(C)Cc1ccc(Oc2ccccc2)cc1`: the cytotoxicity call in the experiment on HSkMC and in the experiment on HepG2 was “inactive” throughout. Further, in the experiment with S. aureus RN4220, the growth inhibition call is “inactive”.
In the case of `COc1ccc(CN(C)C[C@@H]2OCCCC[C@H](C)Oc3ccc(NS(=O)(=O)c4cccs4)cc3C(=O)N([C@H](C)CO)C[C@H]2C)cc1`, the cytotoxicity call in the experiment with HSkMC and in the experiment on HepG2 was “inactive” throughout. Besides, the growth inhibition call in the experiment with S. aureus RN4220 was “inactive”.
With `C[C@H]1CN([C@@H](C)CO)C(=O)c2cc(NC(=O)C3CC3)ccc2O[C@H]1CN(C)S(=O)(=O)c1ccc(F)cc1`, the cytotoxicity call in the experiment with HSkMC and in the experiment on HepG2 was “inactive” throughout. Also, the growth inhibition call in the experiment on S. aureus RN4220 is “inactive”.
On to `COCCOC(=O)C1=C(C)NC(C)=C(C(=O)OCC=Cc2ccccc2)C1c1cccc([N+](=O)[O-])c1` (centres undefined), for which the cytotoxicity call in the experiment with HSkMC is “inactive”. For the same compound, in the experiment on HepG2, the cytotoxicity call is “active”. The growth inhibition call in the experiment on S. aureus RN4220 was “inactive”.
`C[C@H]1CN([C@@H](C)CO)C(=O)CCCn2nncc2CO[C@H]1CN(C)C(=O)Nc1ccc(C(F)(F)F)cc1`: the cytotoxicity call in the experiment on HSkMC and in the experiment on HepG2 was “inactive” in each case. Also, the growth inhibition call in the experiment with S. aureus RN4220 is “active”.
Consider `C[C@@H]1CCCCO[C@@H](CN(C)S(=O)(=O)c2ccccc2)[C@@H](C)CN([C@@H](C)CO)C(=O)c2cc(NC(=O)CCC(F)(F)F)ccc2O1`, for which the cytotoxicity call with HSkMC and in the experiment with HepG2 was “inactive” in each case. Further, in the experiment on S. aureus RN4220, the growth inhibition call is “inactive”.
For the compound `Cc1ccccc1S(=O)(=O)N1C[C@H](O)COC[C@H]2O[C@@H](CC(=O)N3CCC(Cc4ccccc4)CC3)CC[C@@H]21`, the cytotoxicity call with HSkMC was “inactive”. Further, in the experiment on HepG2, the cytotoxicity call is “active”. In addition, the growth inhibition call with S. aureus RN4220 was “inactive”.
In the case of `COc1ccc(NC(=O)N(C)C[C@H]2OCc3cn(nn3)CCCC(=O)N([C@H](C)CO)C[C@H]2C)c(OC)c1`, the cytotoxicity call in the experiment on HSkMC and in the experiment with HepG2 was “inactive” each time. The growth inhibition call with S. aureus RN4220 was “inactive”.
Turning to `Cn1cnc(=O)c2ccccc21`, the cytotoxicity call in the experiment with HSkMC and with HepG2 was “inactive” each time. Besides, the growth inhibition call with S. aureus RN4220 is “inactive”.
Regarding `O=C(NC[C@@H](O)CO)[C@]1(Cc2ccccc2)N=C(c2ccc(OCCCO)cc2)O[C@@H]1c1ccccc1`, the cytotoxicity call in the experiment on HSkMC and with HepG2 was “inactive” each time. Further, the growth inhibition call with S. aureus RN4220 is “inactive”.
For `C[C@H]1CCCCO[C@H](CN(C)C(=O)Nc2cccc3ccccc23)[C@@H](C)CN([C@@H](C)CO)C(=O)c2cc(NC(=O)Nc3ccc(C(F)(F)F)cc3)ccc2O1`, the cytotoxicity call in the experiment with HSkMC and in the experiment on HepG2 was “inactive” in each case. Further, the growth inhibition call in the experiment with S. aureus RN4220 is “inactive”.
In the case of `C[C@@H]1CN([C@@H](C)CO)C(=O)Cc2cc(NC(=O)Cn3cnnn3)ccc2O[C@@H]1CN(C)CC1CCCCC1`, the cytotoxicity call in the experiment on HSkMC (human skeletal muscle cells) and with HepG2 was “inactive” in each case. Also, in the experiment on S. aureus RN4220, the growth inhibition call is “inactive”.
